Data published in US20240400717A1, “Antibody Binding to CHI3L1 for Treating Cancer” (National Cheng Kung University, priority 2021, published 2024).

Target: T1, CHI3L1 binding to IL-13Rα2 on A549 cell line (Homo sapiens, UniProt P36222)
T1 construct: host or cells: A549 cells carry the receptor
Experiment: Functional screen: block of CHI3L1 binding to IL-13Rα2 on A549 cell line
Format: cell-based
Settings: A549 cells, compared with CHI3L1 only
Excerpt: CHI3L1 is known to associate with different receptors, such as IL-13Rα2 (He et al. 2013), CRTH2 (Zhou et al. 2015), TMEM219 (Lee et al. 2016), and galectin-3 (Zhou et al. 2015). […] Therefore, purified antibody leads were functionally screened for their ability to block CHI3L1 binding to IL-13Rα2 on A549 cell line (FIG. 3A). […] The sequences and defied CDR regions among those monoclonal antibodies are listed and summarized in the sequences list (SEQ ID NOs: 1 to 88) and Table 2, respectively. […]

T1 sequence (P36222 22-383): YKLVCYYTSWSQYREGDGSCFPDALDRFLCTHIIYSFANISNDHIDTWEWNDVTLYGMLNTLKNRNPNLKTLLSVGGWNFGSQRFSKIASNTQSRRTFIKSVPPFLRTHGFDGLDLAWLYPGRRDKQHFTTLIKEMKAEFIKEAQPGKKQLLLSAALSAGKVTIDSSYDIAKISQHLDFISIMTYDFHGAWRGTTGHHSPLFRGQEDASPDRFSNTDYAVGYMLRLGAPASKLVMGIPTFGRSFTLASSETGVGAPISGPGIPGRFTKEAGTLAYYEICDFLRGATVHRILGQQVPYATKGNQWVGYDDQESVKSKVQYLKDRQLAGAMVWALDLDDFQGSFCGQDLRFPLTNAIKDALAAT

B1: #R4-39: fully human anti-CHI3L1 mAb, Table 1 No. 26; heavy chain SEQ ID NO: 17, light chain SEQ ID NO: 18 (antibody, listed as Homo sapiens)
VH: EVQLVQSGAEVRKPGESLKISCKASGYRFTNYWIGWVRQMPGKGLEWMGIIYPDDSNTKYSPSFQGQVTISVDKPITTAYLQWSSLKASDTAMYYCVRLDTYYYDSSGFPFDAFDIWGQGTMVTVSS
light: DIQMTQSPSSLSAFVGDRVTITCQASQDISTFLSWYQQKPGKAPKLLIYDATNLETGVPSRFSGRGSGTDFTFTISSLQPEDVATYFCQQYDFLPLSFGGGTKVEIRRTVAAPSVFIFPPSDEQLKSGTASVVCLLNNFYPREAKVQWKVDNALQSGNSQESVTEQDSKDSTYSLSSTLTLSKADYEKHKVYACEVTHQGLNSPVTKSFNRGEC
Question: With B1 as the molecule, how does the CHI3L1 neutralizing activity read?
Answer: best neutralizing activity
